# Measurements reported in the supplement of paper PMC7826260.
# The other results are listed elsewhere or left out. Cleavage of a single-stranded DNA pool by Rep nickase domains was read by sequencing for 1 h at 37 °C with 3 µM enzyme; only the middle of the 90-letter strands is printed. Uncut reads are compared with the no-enzyme pool on a log2 scale; the lower, the more was cut; hits are not called. Reads are scaled to the total; where an enzyme cuts many sequences, the uncut ones exceed 0.
# Test system: T1, Rep nickase domain of tomato golden mosaic virus
# T1 sequence (residues 1-124, tag not shown): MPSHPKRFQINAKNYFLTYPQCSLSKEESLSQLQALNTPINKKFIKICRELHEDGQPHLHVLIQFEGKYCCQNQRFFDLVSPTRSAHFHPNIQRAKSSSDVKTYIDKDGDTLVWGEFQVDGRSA
# Assay: uncleaved DNA left, log2 of reads against the no-enzyme library (log2 ratio); higher = less cleavage (more negative = more Rep cleavage of the k-mer); sequences stand for … in CTCGTCCG…ACCGGAGA
# Protocol: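 A pool of 90-nt single-stranded DNAs with seven random bases just before the constant AC of the nick site (name = the seven bases) was cut by 3 µM recombinant His6-SUMO-tagged Rep nickase domain (300 nM DNA, 50 mM HEPES pH 8.0, 50 mM NaCl, 1 mM MnCl2, 1 h, 37 °C, three replicates). Uncut DNA was amplified and sequenced.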
row,Sequence,uncleaved DNA left (log2)
1,TTGGTTA,-0.0536
2,TACACGT,-0.119
3,AACTGAA,0.131
4,AATGCAG,0.0133
5,CATGTTC,-0.121
6,ACTCGGC,0.0305
7,TGGATGC,0.0217
8,ATACGCA,0.0117
9,GAATCCG,-0.0308
10,GACATTC,-0.0241
11,CCAGCTG,0.00708
12,GAACGCA,0.0674
13,TCTAATT,-0.119
14,ATCTTGT,-0.086
15,AGGCGGC,-0.0685
16,CTCAAGC,0.155
17,CTAACCG,-0.0416
18,CCTATGG,0.0595
19,TGGTTCA,0.00224
20,CTTGCAG,-0.0395

row,Sequence,uncleaved DNA left (log2)
1,CGTAACT,-0.0716
2,TGGCGCA,0.115
3,TCAGGGG,0.146
4,TAATTGG,-0.0449
5,GCCTTAC,0.0714
6,CCAGCCA,0.123
7,TGTGTAG,-0.147
8,CTGTAGC,-0.0855
9,GAATGCT,-3.1
10,GTTTTGT,0.0884
11,CTGTCTA,-0.249
12,CAGGGAG,0.0856
13,TGGATGA,-0.0223
14,AAGCTGA,0.235
15,AAATGGT,-1.47
16,GCAGGGT,0.153
17,GCTGCGG,-0.162
18,ATTAAAT,-0.0119
19,GTGGCTG,0.0922
20,TCACGTA,0.0966
